Test results: article PMC4336329 (PLoS ONE, 2015)
Among all 310,000 compounds or so, about 2,200 (0.71%) showed an effect of 50% or more. Effects have a minus sign here. The list shows a part of the results.

molecular target: human ether-à-go-go-related gene (hERG) potassium channel (human, UniProt Q12809); assay: primary screen, population patch clamp on CHO cells stably expressing hERG
Sequence (Q12809 whole entry, looked up): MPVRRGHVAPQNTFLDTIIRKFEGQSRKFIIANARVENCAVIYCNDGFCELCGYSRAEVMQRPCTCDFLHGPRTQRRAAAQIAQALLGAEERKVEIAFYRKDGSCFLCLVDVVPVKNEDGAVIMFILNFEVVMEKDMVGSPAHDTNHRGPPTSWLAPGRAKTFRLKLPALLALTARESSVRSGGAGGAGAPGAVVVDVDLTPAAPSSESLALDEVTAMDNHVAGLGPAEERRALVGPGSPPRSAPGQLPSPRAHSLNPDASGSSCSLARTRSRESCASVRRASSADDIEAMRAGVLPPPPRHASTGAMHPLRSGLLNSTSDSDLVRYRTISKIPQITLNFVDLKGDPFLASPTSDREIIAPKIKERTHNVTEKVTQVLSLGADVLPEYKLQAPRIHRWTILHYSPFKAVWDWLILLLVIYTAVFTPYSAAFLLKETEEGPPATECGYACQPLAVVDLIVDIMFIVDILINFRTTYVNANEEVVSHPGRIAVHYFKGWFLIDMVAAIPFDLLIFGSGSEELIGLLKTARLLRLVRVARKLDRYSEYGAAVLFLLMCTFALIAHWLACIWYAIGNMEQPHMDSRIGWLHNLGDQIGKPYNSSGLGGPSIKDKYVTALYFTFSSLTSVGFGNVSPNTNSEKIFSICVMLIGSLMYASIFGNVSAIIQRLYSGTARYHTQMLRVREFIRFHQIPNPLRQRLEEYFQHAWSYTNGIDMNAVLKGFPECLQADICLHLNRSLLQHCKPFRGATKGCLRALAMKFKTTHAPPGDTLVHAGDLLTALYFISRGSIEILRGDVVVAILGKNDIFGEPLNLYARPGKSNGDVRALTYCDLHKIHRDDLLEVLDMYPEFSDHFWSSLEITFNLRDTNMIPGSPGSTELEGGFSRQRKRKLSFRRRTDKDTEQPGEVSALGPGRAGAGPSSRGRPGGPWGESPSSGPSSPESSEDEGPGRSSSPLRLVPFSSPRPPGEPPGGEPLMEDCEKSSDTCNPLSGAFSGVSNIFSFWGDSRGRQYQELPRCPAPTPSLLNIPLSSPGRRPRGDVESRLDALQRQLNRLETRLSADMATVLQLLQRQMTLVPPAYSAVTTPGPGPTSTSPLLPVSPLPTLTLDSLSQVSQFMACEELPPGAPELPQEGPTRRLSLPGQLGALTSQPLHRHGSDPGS

Compound	hERG current change (%, negative = inhibition) at 1uM [%]
O=C(c1cc(S(=O)(=O)N2CCOCC2)c(Cl)cc1Cl)N1CCCCC1	6.67
CCc1ccc(NC(=O)NCCN2CCN(c3ccc(OC)cc3)CC2)cc1	5.61
CCCCCC(=O)Nc1ccc2oc(-c3cccnc3)nc2c1	0.166
O=C(NCCN1CCOCC1)c1ccc2ccccc2n1	14.7
Cc1ccnc2nc(C(=O)NC3=NCCS3)nn12	12.6
S=C1N(c2ccccc2)CN(CCN2CCOCC2)CN1c1ccccc1	14.5
Cc1cccc(C(=O)OCCN2CCOCC2)c1.Cl	7.93
O=C(Nc1ccccc1)c1ccc(NC2CCCCC2)c(S(=O)(=O)N2CCOCC2)c1	3.65
CN1C2CCC1CC(NC(=O)c1ccc([N+](=O)[O-])cc1)C2 (stereo not drawn)	12.1
O=C(/C=C/c1ccc(Cl)cc1Cl)Nc1cccc(S(=O)(=O)NC2=NCCC2)c1	8.84
O=C1C(C=NCc2ccncc2)=C(O)c2ccccc21	1.6
Cc1ccc(NC(=O)c2ccc(CNS(=O)(=O)c3cccc(C(F)(F)F)c3)cc2)cc1	-1.03
O=C(CSc1n[nH]c(-c2ccncc2)n1)Nc1ccc(Br)cc1	7.77
CCC(C)[C@@H](CN)NCC1(c2ccccc2)CC1 (stereo partly drawn)	15.3
COc1cc(C2C3=C(CCCC3=O)Nc3[nH]n(-c4ccccc4)c(=O)c32)ccc1OC(C)=O (stereo not drawn)	11.5
CC(=O)C1=C(O)C(=O)N(c2ccc(C(=O)O)cc2)C1c1ccccc1 (stereo not drawn)	12.6
COc1cc(OC)cc(C(=O)N2CCC(C(=O)N3CCOCC3)CC2)c1	14.2
Cc1cccc(OCC(=O)Nc2ccccc2-c2ccccc2)c1	12.6
O=C(CN1CCOCC1)Nc1ccc(OCc2ccccc2)cc1	-4.54
CC(C(=O)Nc1nncs1)N1C(=O)C2C3C=CC(C3)C2C1=O (stereo not drawn)	2.09
O=C(NNc1cc(C(F)(F)F)ccc1Cl)c1ccc(=O)[nH]c1	15.8
O=C(CSc1nc2[nH]ncc2c(=O)n1-c1ccccc1Cl)N1CCCC1	7.64
Cc1c(C(=O)Nc2nnc(SCc3ccccc3Cl)s2)cccc1[N+](=O)[O-]	17.4

Compound	hERG current change (%, negative = inhibition) at 1uM [%]
CNC(=O)/C(=C/c1ccc2c(c1)OCO2)NC(=O)c1ccc(Br)cc1	-20.3
O=C(CN1C(=O)COc2ccccc21)NCCCN1CCOCC1	14.2
CN(C)c1ccc(/C=C(\C#N)C(=O)c2ccccc2)cc1	10.1
NC(=S)N/N=C/c1cc([N+](=O)[O-])ccc1Cl	12.6
COC(=O)c1cc(NC(=O)CC2C(=O)NCCN2C(=O)c2ccccc2)cc(C(=O)OC)c1 (stereo not drawn)	13.9
CC(=O)Oc1cccc(C2C3=C(CC(C)(C)CC3=O)Nc3ccccc3N2C(C)=O)c1 (stereo not drawn)	12.2
C/C(O)=C/c1nc2ccccc2[nH]c1=O	2.08
CCOc1cc(NC(=O)c2cccs2)c(OCC)cc1NC(=O)c1cccnc1	17
CNC(=O)c1ccc(-c2ccc(F)cc2)s1	6.53
NC(=O)c1ccc(-c2ccc(Br)cc2)o1	7.39
O=C(Nc1cccc(NC(=O)c2ccco2)c1)c1cccc(Br)c1	4.16
O=C(Cc1ccc(F)cc1)NC(Cc1c[nH]c2ccccc12)C(=O)O (stereo not drawn)	12.4
Cc1cccc(NC(=O)CN2CCN(C(=O)c3cccc(-n4cnnn4)c3)CC2)c1C	-11.9
CCCCCC(=O)N1CCN(CCN=CC2=C(O)CC(c3ccco3)CC2=O)CC1 (stereo not drawn)	-74.7
CN(Cc1ccccc1)C(=O)COC(=O)c1ccc2ccccc2n1	1.91
CSc1ccccc1C(=O)N1CCOCC1	5.71
CN(C)c1nc(N)nc(CSc2nnnn2-c2ccccc2)n1	8.57
COc1ccc(C(=O)NNC(=S)NC(=O)c2cccs2)cc1	9.11
COc1ccc(Nc2c3c(c(C#N)c4nc5ccccc5n24)CCC3)cc1	7.64
C/C(=C1/SC(N2CCOCC2)=NC1=O)c1ccc(Cl)cc1	7.69
Cc1ccc(C)c(NC(=O)c2cc(-c3cc(C)ccc3O)n[nH]2)c1	15.9
CCC(C)c1ccccc1NC(=O)C(C)N(C)Cc1cccc(OC)c1.O=C(O)C(=O)O (stereo not drawn)	6.47
Cc1oc(-c2ccccc2)nc1CN1C(=O)CN=C(c2ccccc2)c2ccccc21	0.0675

Compound	hERG current change (%, negative = inhibition) at 1uM [%]
CCc1nnc(NC(=O)CSc2nc3cc4c(cc3cc2C)OCCO4)s1	5.85
COc1ccc(Nc2nc(-c3cccs3)cs2)cc1	15.4
OC1CCN(Cc2nc(Cc3ccccc3Cl)no2)CC1	11
CC(C)[C@H](NC(=O)c1ccccc1)C(=O)NCCc1ccccc1	10.7
CSc1cccc(NC(=O)CCCOc2ccc(Cl)cc2C)c1	5.19
O=C(Cc1cc(=O)[nH][nH]1)N/N=C/c1c(F)cccc1Cl	5.37
COc1ccc(C)cc1S(=O)(=O)N(CC(=O)Nc1cccc([N+](=O)[O-])c1)c1cc(C)cc(C)c1	8.09
O=C(Cn1c(=O)oc2cc(S(=O)(=O)NCc3ccccc3)ccc21)N1CCCC1	10.6
O=C(CN1CCc2cc3c(cc2C1)OCCCO3)Nc1cccc(Br)c1	12.8
CN(C)c1nc(C(N)=O)nc(N2CCOCC2)n1	7.24
CCN(Cc1ccccc1)C(c1cccc(C#N)c1)c1nnnn1C(C)(C)C (stereo not drawn)	11.3
COc1cccc(F)c1C(C[N+](=O)[O-])c1c(N)n(C)c(=O)n(C)c1=O (stereo not drawn)	5.57
CNC(=S)N/N=C/c1ccc2c(c1)OCCO2	8.3
Cc1ccnc(NC(=O)CCC(=O)N(CC(=O)NCc2ccccc2)Cc2ccccc2)c1	10.9
Cc1noc(C)c1CSCC(=O)N1CCN(c2ccc([N+](=O)[O-])cc2)CC1	-83.4
COC(=S)N/C(=N\S(=O)(=O)c1ccc(Cl)cc1)c1ccccc1	13.7
CN1CCN(c2cnn(-c3ccccc3)c(=O)c2Br)CC1	13.2
CCc1ccc(NC(=O)CSc2nnc(-c3ccccn3)n2C)cc1	-0.802
Cc1ccc(N(CCC#N)C(=O)CSc2nc3ccccc3c(=O)[nH]2)cc1	6.93
CCC(=O)Nc1cccc(NC(=S)NC(=O)Cc2ccccc2)c1	15.5
Cc1noc(NS(=O)(=O)c2ccc(N/C=C\C(=O)c3ccc4c(c3)OCO4)cc2)c1C	6.54
COc1ccc(/C=C2\Sc3ccc(C(=O)N4CCCC4)cc3N(C)C2=O)cc1OC	15.4
Cc1cc(Cl)ccc1OCC(=O)OCC(=O)NC1CCCC1	9.16

Compound	hERG current change (%, negative = inhibition) at 1uM [%]
CC(=O)c1cccc(NC(=O)N2CCCC2C(=O)Nc2cc(C)ccc2C)c1 (stereo not drawn)	-2.7
CCOC(=O)Cn1cc(/C=C(/C#N)C(=O)NC(C)C)c2ccccc21	16.1
COC(=O)Cc1ccc(NC(=S)NCCC(C)C)cc1	8.85
C=CCOc1ccc(/C=N/NC(=O)c2c(C)nc3ccc(Cl)cn23)cc1	15.5
CCOc1ccc(NC(=O)c2cc(SC)ccc2Cl)cc1	14.1
CCC(C)c1ccc(NC(=O)N2CCOCC2)cc1 (stereo not drawn)	9.12
COc1ccc(C2(C(=O)Nc3ccc(C)c(C)c3)CCOCC2)cc1	14.8
COc1ccc(-c2noc(=O)n2CC(=O)N2CCC(Cc3ccccc3)CC2)cc1	18.7
CC(=O)c1ccc(S(=O)(=O)N2CCC(Oc3ccc(-n4cnnn4)cc3)CC2)cc1	17.6
COc1ccc(NC(=O)c2sc(=S)[nH]c2N)cc1	16.1
Cc1nnc(N2CCCC(C(=O)NCc3ccc(OC(C)C)cc3)C2)c2nn(-c3ccccc3)c(C)c12 (stereo not drawn)	3.08
OCC1(C2=NOC(O)(C(F)(F)F)C2)CCCCC1 (stereo not drawn)	13.3
O=c1[nH]cnc2c1C(c1ccc(Cl)cc1)c1c(nc[nH]c1=O)O2	1.37
Cc1c(NC(=O)C(C)OC(=O)COc2cccc3c2OC(C)(C)C3)c(=O)n(-c2ccccc2)n1C (stereo not drawn)	10.6
COc1ccc(C2(C)NC(=O)N(CC(=O)Nc3ccc4[nH]c(=O)[nH]c4c3)C2=O)cc1 (stereo not drawn)	8.1
O=C(NCCc1ccccc1)c1ccc2nc(N3CCOCC3)sc2c1	10.7
O=C(COC(=O)c1cc2c(s1)CCCC2)NCc1ccccc1Cl	2.75
Clc1ccc(Nc2nc3ccccc3n3nnnc23)cc1	6.95
NC(=O)c1ccccc1NC(=O)COc1ccc(Cl)cc1	10.8
Br.Nc1nc(-c2ccccc2)c(N=Nc2ccc(Cl)cc2)s1	10.1
CSc1ccc(/C=C(/NC(=O)c2ccco2)C(=O)N2CCCCC2)cc1	7.85
